Reference: US20250066451A1 (SWEDISH ORPHAN BIOVITRUM AB PUBL, published 2025)
Positions count from the first letter of the chain named.

T1: human IL-1R-I (RnD Systems cat. no. 269-1R/CF) (human, UniProt P14778 18-332, limits assumed)
T1 construct: bought protein; also called hIL-1R-I; hIL-1RI
T1 sequence (looked up): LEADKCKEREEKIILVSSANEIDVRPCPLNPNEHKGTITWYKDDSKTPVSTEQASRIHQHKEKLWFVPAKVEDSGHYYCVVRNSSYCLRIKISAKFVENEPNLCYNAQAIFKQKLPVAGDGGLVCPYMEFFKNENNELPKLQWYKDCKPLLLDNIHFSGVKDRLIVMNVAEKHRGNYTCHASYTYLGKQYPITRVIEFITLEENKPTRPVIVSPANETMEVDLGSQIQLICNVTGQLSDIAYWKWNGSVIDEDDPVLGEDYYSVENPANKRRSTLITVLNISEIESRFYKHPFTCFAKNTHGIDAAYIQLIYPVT

B1: Z15908-ABD (designed binder)
chain: AQHDEALEVDAKYAKEVEEAYMEIYNLPNLTRRQYTAFIRKLLDDPSQSSELLSEAKKLNDSQAPKVDYVLAEAKVLANRELDKYGVSDYYKNLINNAKTVEGVKALIDEILAALPYVPG
B2: Z15947-ABD (designed binder)
chain: B1 chain with V17T, E19I, Y21Q, Y25F, N26A, R33K
B3: Z15972-ABD (designed binder)
chain: B1 chain with E19Q, Y21Q, Y25F, N26Y, R33K
B4: Z15986-ABD (designed binder)
chain: B1 chain with Y21Q, Y25F, N26G, R33K
B5: Z16009-ABD (designed binder)
chain: B1 chain with Y21Q, M22L, Y25F, N26G, R33K
B6: Z16010-ABD (designed binder)
chain: B1 chain with V17T, E19Q, Y21Q, Y25F
B7: Z16012-ABD (designed binder)
chain: B1 chain with E19Q, Y21Q, Y25F, N26F, R33K
B8: Z16013-ABD (designed binder)
chain: B1 chain with V17I, E19S, Y21Q, Y25F, N26D, R33K
B9: Z16014-ABD (designed binder)
chain: B1 chain with V17I, E19K, Y21Q, Y25F, N26Y, R33K
B10: Z16015-ABD (designed binder)
chain: B1 chain with N26Y, R33K
B11: Z16016-ABD (designed binder)
chain: B1 chain with E19D, Y21Q, N26Y, R33K
B12: Z16017-ABD (designed binder)
chain: B1 chain with Y21Q, N26D, R33K
B13: Z16018-ABD (designed binder)
chain: B1 chain with E19L, Y21Q, Y25F, R33K
B14: Z16019-ABD (designed binder)
chain: B1 chain with V17T, E19Y, Y21Q, Y25F, N26A, R33K, L43F
B15: Z16020-ABD (designed binder)
chain: B1 chain with E19A, Y21Q, N26G, R33K, L43F
B16: Z16021-ABD (designed binder)
chain: B1 chain with E19V, Y21Q, Y25F, N26A
B17: Z16022-ABD (designed binder)
chain: B1 chain with V17I, E19F, Y21Q, Y25F, N26A, R33K, L43F
B18: Z16024-ABD (designed binder)
chain: B1 chain with Y21Q, Y25F, N26T, R33K
B19: Z16025-ABD (designed binder)
chain: B1 chain with E19V, R33K
B20: Z16026-ABD (designed binder)
chain: B1 chain with E19K, Y21Q, N26Y, R33K, L43F
B21: Z16027-ABD (designed binder)
chain: B1 chain with E18Y, E19Q, Y21Q, Y25F, N26Y, R33K
B22: Z16028-ABD (designed binder)
chain: B1 chain with V17I, E18R, E19D, Y21Q, Y25F, N26D, R33K, L43F
B23: Z16029-ABD (designed binder)
chain: B1 chain with V17I, E19D, Y21Q, M22L, Y25F, N26A, R33K
B24: Z16030-ABD (designed binder)
chain: B1 chain with E19Y, Y21Q, Y25F, N26A, R33K
B25: Z16031-ABD (designed binder)
chain: B1 chain with V17A, E18Y, E19Y, Y21Q, Y25F, N26A, R33K
B26: Z16032-ABD (designed binder)
chain: B1 chain with V17A, E19D, N26E, R33K
B27: Z16033-ABD (designed binder)
chain: B1 chain with V17I, E19D, N26R
B28: Z16035-ABD (designed binder)
chain: B1 chain with V17L, Y21Q, Y25F, N26A, R33K
B29: Z16036-ABD (designed binder)
chain: B1 chain with E19T, Y21Q, Y25F, N26E, R33K, L43F
B30: Z16037-ABD (designed binder)
chain: B1 chain with V17I, E19D, Y21Q, Y25F, N26Q, R33K
B31: Z16038-ABD (designed binder)
chain: B1 chain with E19D, Y21Q, Y25F, N26E, R33K, L43F
B32: Z16039-ABD (designed binder)
chain: B1 chain with N26H, R33K
B33: Z16040-ABD (designed binder)
chain: B1 chain with E18Q, E19D, Y21Q, Y25F, N26E, R33K
B34: Z16044-ABD (designed binder)
chain: B1 chain with E19R, Y21Q, Y25F, R33K, L43F
B35: Z16045-ABD (designed binder)
chain: B1 chain with V17A, E19Y, Y21Q, Y25F, N26A
B36: Z16047-ABD (designed binder)
chain: B1 chain with V17I, E19K, Y21Q, Y25F, N26S, R33K
B37: Z16052-ABD (designed binder)
chain: B1 chain with V17I, E19A, Y21Q, Y25F, N26D, R33K, L43F
B38: Z16055-ABD (designed binder)
chain: B1 chain with V17I, Y21Q, Y25F, N26G, R33K
B39: Z16056-ABD (designed binder)
chain: B1 chain with E19Q, Y21Q, Y25F, N26G, R33K
B40: Z16057-ABD (designed binder)
chain: B1 chain with V17A, Y21Q, Y25F, N26T, R33K
B41: Z16059-ABD (designed binder)
chain: B1 chain with V17T, E18Y, E19Y, Y21Q, Y25F, N26S, R33K
B42: Z16060-ABD (designed binder)
chain: B1 chain with Y21Q, N26S, R33K, L43F
B43: Z16061-ABD (designed binder)
chain: B1 chain with V17I, E19A, Y21Q, Y25F, N26Y, R33K
B44: Z16062-ABD (designed binder)
chain: B1 chain with V17I, Y21Q, Y25F, N26Y, R33K, L43F
B45: Z16063-ABD (designed binder)
chain: B1 chain with V17I, E19S, Y21Q, Y25F, N26Y, R33K

Target: T1, human IL-1R-I (RnD Systems cat. no. …)
Experiment: Biacore kinetic screening, Z-ABD captured on anti-ABD, 100 nM hIL-1R-I

| Binder | Kd |
| --- | --- |
| B1 | 17 nM |
| B2 | 11 nM |
| B3 | 12 nM |
| B4 | 9.5 nM |
| B5 | 20 nM |
| B6 | 12 nM |
| B7 | 12 nM |
| B8 | 18 nM |
| B9 | 11 nM |
| B10 | 15 nM |
| B11 | 12 nM |
| B12 | 18 nM |
| B13 | 16 nM |
| B14 | 15 nM |
| B15 | 20 nM |
| B16 | 9.6 nM |
| B17 | 15 nM |
| B18 | 14 nM |
| B19 | 19 nM |
| B20 | 16 nM |
| B21 | 14 nM |
| B22 | 19 nM |
| B23 | 21 nM |

| Binder | Kd |
| --- | --- |
| B24 | 17 nM |
| B25 | 20 nM |
| B26 | 26 nM |
| B27 | 19 nM |
| B28 | 17 nM |
| B29 | 11 nM |
| B30 | 14 nM |
| B31 | 8.9 nM |
| B32 | 14 nM |
| B33 | 20 nM |
| B34 | 17 nM |
| B35 | 20 nM |
| B36 | 19 nM |
| B37 | 12 nM |
| B38 | 12 nM |
| B39 | 13 nM |
| B40 | 33 nM |
| B41 | 16 nM |
| B42 | 19 nM |
| B43 | 12 nM |
| B44 | 7.6 nM |
| B45 | 12 nM |
